From the antibiotic and cytotoxicity screens of Wong et al. (2023) come the findings set out here.

The list shows a part of the results.

For this test, the system named is HSkMC (human skeletal muscle cells). Kind of test: cytotoxicity call (relative viability < 0.9). The following applies: 10 µM.
Take `CC(C)=CCCC(C)=CCCC(C)=CCO` [trans,trans-FARNESOL ]: the cytotoxicity call is “inactive”.
In the case of `CC1(C)S[C@@H]2[C@H](NC(=O)[C@H](N)c3ccc(O)cc3)C(=O)N2[C@H]1C(=O)O`, the cytotoxicity call is “inactive”.
With `Cc1noc(C)c1NC(=O)Nc1ccc2c(c1)C(=O)N([C@H](C)CO)C[C@H](C)[C@H](CN(C)S(=O)(=O)c1ccc(F)cc1)OCCCC[C@H](C)O2` the entry was “inactive”; with `C[C@@H]1CCCCO[C@H](CN(C)S(=O)(=O)c2cccs2)[C@@H](C)CN([C@@H](C)CO)C(=O)c2cc(NS(=O)(=O)c3cn(C)cn3)ccc2O1`, “inactive”; with `COc1ccc(NC(=O)N(C)C[C@H]2OCCCC[C@H](C)Oc3ccc(NC(=O)Nc4ccc(F)cc4)cc3C(=O)N([C@@H](C)CO)C[C@H]2C)cc1`, “inactive”.
With `Cc1ccc(S(=O)(=O)N(C)C[C@@H]2Oc3ccc(NC(=O)CCCN(C)C)cc3CC(=O)N([C@H](C)CO)C[C@H]2C)cc1` the entry was “inactive”; with `CC(/C=C/C(=O)NO)=C\c1ccccc1OCc1cn(CC[C@@H]2OC(=O)[C@H](Cc3ccccc3)N3CC4=C[C@@H](C5CC5)n5c(=O)n(C)c(=O)n5[C@H]4[C@H]23)nn1`, “inactive”; with `COc1ccc(COCC23Oc4ccccc4[C@H]([C@H]2CO)n2c(c4c(c(C(C)=O)c2=O)C(=O)N(C)C4=O)N3C)cc1`, “inactive”.
With `COc1ccc(CN(C)C[C@H]2OCCCC[C@H](C)Oc3ccc(NC(=O)Nc4ccc(F)cc4)cc3C(=O)N([C@@H](C)CO)C[C@@H]2C)cc1` the entry was “inactive”; with `Cc1ccc(S(=O)(=O)Nc2ccc3c(c2)C(=O)N([C@H](C)CO)C[C@H](C)[C@H](CN(C)C(=O)CCC(F)(F)F)OCCCC[C@@H](C)O3)cc1`, “inactive”; with `Cn1cnc(S(=O)(=O)N[C@H]2CC[C@H](CC(=O)NCC3CC3)O[C@@H]2CO)c1`, “inactive”.
Turning to `C[C@@H]1CCCCO[C@@H](CN(C)Cc2ccc3c(c2)OCO3)[C@@H](C)CN([C@@H](C)CO)C(=O)c2cc(NC(=O)C3CCCCC3)ccc2O1`, the cytotoxicity call was “inactive”.
The result for `O=c1[nH]c(=O)n(C2CC(O)C(CO)O2)cc1C(F)(F)F` (centres undefined) reads “inactive”; that for `C[C@@H]1CN([C@@H](C)CO)C(=O)c2cccc(NC(=O)Nc3cccc4ccccc34)c2O[C@@H]1CN(C)S(=O)(=O)c1ccc(Cl)cc1`, “inactive”.
With `COc1ccc(CN(C)C[C@@H]2OCCCC[C@@H](C)Oc3ccc(NS(=O)(=O)c4ccc(OC)cc4)cc3C(=O)N([C@@H](C)CO)C[C@H]2C)cc1` the entry was “inactive”.
With `Cc1noc(C)c1NC(=O)Nc1ccc2c(c1)C(=O)N([C@@H](C)CO)C[C@H](C)[C@@H](CN(C)C(=O)NC(C)C)O2` the entry was “inactive”.
For `COc1ccc(CN(C)C[C@@H]2OCCCC[C@H](C)Oc3ccc(NC(=O)Nc4ccc(F)cc4)cc3C(=O)N([C@H](C)CO)C[C@H]2C)cc1`, the cytotoxicity call is “inactive”.
With `C[C@@H]1CN([C@H](C)CO)C(=O)Cc2cc(NC(=O)C3CC3)ccc2O[C@H]1CN(C)Cc1ccc(C(=O)O)cc1` the entry was “inactive”; with `COc1cc2c(cc1OC)CN(C(=O)[C@H]1[C@@H]3C(=O)O[C@@H](c4ccccc4)[C@@H](c4ccccc4)N3[C@@H](c3ccccc3OCCO)[C@]13C(=O)Nc1ccc(C#CC4(O)CCCCCC4)cc13)CC2`, “inactive”; with `CC1(C)CCC2=C(O1)C(=O)c1ccccc1C2=O` [alpha-LAPACHONE ], “inactive”.
With `C[C@H](CO)N1C[C@H](C)[C@H](CN(C)C(=O)c2ccncc2)Oc2cc(C#C[C@@H](C)O)ccc2S1(=O)=O` the entry was “inactive”; with `Cc1ccc(N2C(=O)c3ccccc3[C@](C)(C(=O)NCCN3CCOCC3)[C@@H]2c2ccc(CO)cc2)nc1`, “inactive”; with `NC(=O)COc1ccccc1`, “inactive”.
On to `C[C@@H]1CN([C@@H](C)CO)C(=O)Cc2cc(NC(=O)NC3CCCCC3)ccc2O[C@H]1CN(C)Cc1ccc(Oc2ccccc2)cc1`, for which the cytotoxicity call was “inactive”.
As to `COc1ccc([Si](C)(C)[C@H]2[C@H](CC(=O)N3Cc4ccccc4C[C@H]3CO)O[C@@]3(C(=O)N(Cc4cccc(N5CCOC5=O)c4)c4ccccc43)[C@@H]2C)cc1`, the cytotoxicity call is “inactive”.
With `C[C@H]1CCCCO[C@@H](CN(C)CC2CC2)[C@@H](C)CN([C@@H](C)CO)C(=O)c2cc(NC(=O)Nc3ccc(F)cc3)ccc2O1` the entry was “inactive”; with `O=C(C[C@@H]1C[C@@H]2c3cc(NC(=O)NC4CCCC4)ccc3O[C@@H]2[C@@H](CO)O1)NCCN1CCCCC1`, “inactive”; with `C[C@H](CO)N1C[C@H](C)[C@H](CN(C)Cc2ccc3c(c2)OCO3)OCCCC[C@H](C)Oc2ccc(NC(=O)c3ccccc3)cc2C1=O`, “inactive”.
With `C[C@@H]1CCCCO[C@@H](CN(C)Cc2ccc3c(c2)OCO3)[C@H](C)CN([C@H](C)CO)C(=O)c2cc(NS(=O)(=O)c3ccc(F)cc3)ccc2O1` the entry was “inactive”; with `C[C@@H]1CN([C@H](C)CO)S(=O)(=O)c2ccc(C#Cc3cccc(F)c3)cc2O[C@H]1CN(C)S(=O)(=O)c1cn(C)cn1`, “inactive”.
With `C[C@H](CO)N1C[C@H](C)[C@H](CN(C)C(=O)C2CCCCC2)OCCCC[C@H](C)Oc2ccc(NC(=O)c3ccccc3)cc2C1=O` the entry was “inactive”; with `C[C@@H]1CN([C@H](C)CO)C(=O)Cc2cc(NS(=O)(=O)c3cn(C)cn3)ccc2O[C@@H]1CN(C)CC1CCCCC1`, “inactive”.
Take `C[C@@H]1CCCCO[C@H](CN(C)C(=O)NC2CCCCC2)[C@H](C)CN([C@@H](C)CO)C(=O)c2cc(NC(=O)C3CCCCC3)ccc2O1`: the cytotoxicity call is “inactive”.
As for `OCc1ccc(O[C@@H]2O[C@H](CO)[C@@H](O)[C@H](O)[C@H]2O)cc1`, the cytotoxicity call was “inactive”.
For `C[C@@H]1CN([C@H](C)CO)C(=O)Cc2cc(NC(=O)Nc3ccc(C(F)(F)F)cc3)ccc2O[C@@H]1CN(C)Cc1ccc(C(=O)O)cc1`, the cytotoxicity call was “inactive”.
As for `CS(=O)(=O)CS(=O)(=O)C1=C(N2CCOCC2)C2CCN1CC2`, the cytotoxicity call is “inactive”.
On to `Cc1ccccc1S(=O)(=O)N1C[C@@H](O)COC[C@@H]2O[C@@H](CC(=O)N3CCOCC3)CC[C@H]21`, for which the cytotoxicity call is “inactive”.
The result for `COCC#Cc1ccc([C@H]2[C@@H](CO)N3C(=O)CN(C(=O)C4CCOCC4)C[C@H]23)cc1` reads “inactive”.
With `C[C@@H]1CN([C@H](C)CO)C(=O)c2cc(NC(=O)CCCN(C)C)ccc2O[C@@H]1CN(C)S(=O)(=O)c1cccs1` the entry was “inactive”.
